Test results taken from PubChem BioAssay AID463173 (ICCB-Longwood Screening Facility, Harvard Medical School, 2010).
The campaign covered roughly 52,000 compounds. About 1,700 (3.3%) were called active. No stated cut-off is given here; in the data, active means survival mostly below about 52% (no sharp cut-off); inactive means mostly above about 56%. The list shows a part of the results.

test system: Wild type; assay: S. aureus survival, RN4220 and DeltatarO strains – OD600, teichoic acid synthesis inhibitors, primary screen (AID 463173); settings: S. aureus RN4220 wild type/DeltatarO growth, OD600, 18 h, active compounds read low, screened at 18.75 µg/mL (by protocol)

| SMILES | survival |
| --- | --- |
| CCC/C(O)=C1\C(=O)CC(C)(C)CC1=Nc1ccncc1 | inactive: 115% |
| Cc1cccc(C(=O)NCc2cn3cccc(C)c3n2)c1 | inactive: 109% |
| CC(C)c1ccc(Cc2cnc(NC(=O)c3ccc4c(c3)CC(c3ccccc3)OC4=O)s2)cc1 (centres undefined) | inactive: 88% |
| O=c1cc(N2CCN(c3ccc(F)cc3)CC2)[nH]c(=O)n1-c1cccc(Br)c1 | inactive: 45% |
| Cc1ccc(C)c(NC(=O)C(NS(=O)(=O)c2ccc3c(c2)CCC(=O)N3)c2ccccc2)c1 (centres undefined) | inactive: 128% |
| CC[C@H](C)NC(=O)CCCc1nnc2n(CCC(C)C)c(=O)c3sccc3n12 | inactive: 95% |
| COc1ccccc1OC(C)C(=O)N1CCN(CCc2ccccn2)CC1 (centres undefined) | inactive: 82% |
| Cc1ccnc(NC(c2cc(C)ccc2O)c2ccc3cccnc3c2O)c1 (centres undefined) | active: 3% |
| COc1ccc(-c2cn3c(n2)sc2cc(C(=O)NC4CCCCC4)ccc23)cc1 | inactive: 88% |
| Cc1ccc(CNC(=O)C2CCN(S(=O)(=O)c3c(C)noc3/C=C/c3ccccc3F)CC2)o1 | inactive: 73% |
| COc1ccc(S(=O)(=O)N(C(=O)c2ccncc2)c2ccc3oc(C)c(C(C)=O)c3c2)cc1 | inactive: 133% |
| Cc1ccc(C(=O)c2cc(C)sc2NC(=O)CN2CCN(C(=O)c3ccco3)CC2)cc1 | inactive: 110% |
| Cc1ccc(-n2c(=O)c3cccnc3n2CC(=O)Nc2ccccc2C(F)(F)F)cc1C | inactive: 71% |
| COc1cccc(CNC(=O)C2CCCN(S(=O)(=O)c3cn(C)cn3)C2)c1 (centres undefined) | inactive: 78% |
| CCOC(=O)C1CCCN(C(=O)Cn2nc(C)n3c(cc4c(OC)cccc43)c2=O)C1 (centres undefined) | inactive: 81% |
| CCC(C)n1c(=N)c(C(=O)NC2CCCCC2)cc2c(=O)n3cc(C)ccc3nc21 (centres undefined) | inactive: 137% |
| COc1ccccc1N1CCN(Cc2cc(COC(C)C)c3cccnc3c2O)CC1 | inactive: 103% |
| O=c1c2ccccc2nc2sc(Nc3cccc(C(F)(F)F)c3)nn12 | inactive: 68% |
| CCN(CC)c1ccc(C2C(C(N)=O)=C(C)Nc3nc(SCc4ccccc4)nn32)cc1 (centres undefined) | inactive: 84% |
| Cc1nc(N(CCO)C2CCCCC2)c2nnn(Cc3ccccc3)c2n1 | inactive: 123% |
| COc1ccc(/C=C\c2onc(C)c2S(=O)(=O)N2CCC(C(=O)Nc3ccc(C)c(F)c3)CC2)cc1 | inactive: 93% |
| CCOC(=O)c1nnc2c(-c3ccc(F)cc3)c(C)nn2c1N | inactive: 97% |
| CSc1cccc(NS(=O)(=O)c2ccc3[nH]cc(C(=O)N4CCCCCC4)c(=O)c3c2)c1 | inactive: 79% |

| SMILES | survival |
| --- | --- |
| Cc1cccc(Cc2c(C)nc3nc(SCC(=O)NC4CCCCC4)nn3c2C)c1 | inactive: 74% |
| Fc1ccc(-c2noc3ncnc(NCc4cccc(Cl)c4)c23)cc1 | inactive: 55% |
| COCCN1CN=C(NS(=O)(=O)c2ccc(C)cc2)NC1 | inactive: 71% |
| COc1ccc(-c2noc(CCC(=O)Nc3ccccc3Cl)n2)cc1OC | inactive: 108% |
| COc1ccccc1CNC(=O)c1cnn(-c2ccc(F)cc2F)c1C1CCN(C(=O)OC(C)(C)C)CC1 | inactive: 71% |
| Cc1ccc(N2CC(NC(=O)Cc3ccc(F)cc3)CC2=O)cc1C (centres undefined) | inactive: 79% |
| O=C(Nc1ccc(N2CCN(C(=O)c3ccco3)CC2)cc1)c1ccccc1 | inactive: 121% |
| CCOc1cc(C2CC(=O)Nc3c2c(C)nn3-c2nc(C)cc(C)n2)ccc1O (centres undefined) | inactive: 83% |
| COc1ccccc1N1CCN(C(=O)c2oc3ccccc3c2N)CC1 | inactive: 61% |
| Cc1ccc(-c2onc(C)c2C)cc1S(=O)(=O)NC1CCC(C)CC1 (centres undefined) | inactive: 99% |
| COC(=O)c1cccnc1-n1c(=O)c2cccnc2n(CC(=O)Nc2cccc(C(F)(F)F)c2)c1=O | inactive: 68% |
| CC1CCN(S(=O)(=O)c2ccc3nc(N4CCN(c5ccccc5F)CC4)ccc3c2)CC1 | inactive: 99% |
| COc1ccc(/C=C(\C#N)c2nc(-c3cc4ccccc4oc3=O)cs2)cc1OC | inactive: 70% |
| O=C(/C=C/c1ccccc1)Nc1cc(-c2nc3ccccc3o2)ccc1Cl | inactive: 74% |
| FC(F)(F)c1cccc(N2CCN(Cc3nnc(-c4ccccc4)o3)CC2)c1 | inactive: 43% |
| COC(=O)c1ccc(N2C(=O)c3ccc(N)cc3C2=O)cc1 | inactive: 109% |
| COc1cc(C)ccc1OCCSc1nnc(-c2cccs2)o1 | inactive: 65% |
| CCCN(CCC)CCCNC(=O)c1nn(C)c2c1CS(=O)(=O)c1ccccc1-2 | inactive: 109% |
| CC(=O)Nc1nonc1-c1nnc(SCc2cccc(Br)c2)n1C | inactive: 115% |
| CCOc1ccccc1CNC(=O)c1ccc(Cn2c(=O)c3cccn3c3cccnc32)cc1 | inactive: 80% |
| CC(C)c1ccc(-c2noc(SCC(=O)N3CCCCC3)n2)cc1 | inactive: 59% |
| CCc1cccc(C)c1NC(=O)C(CC)Sc1nc2ccncc2[nH]1 (centres undefined) | inactive: 122% |
| CCOc1cccc2sc(NC(=O)c3ccc(S(=O)(=O)N4CCc5ccccc54)cc3)nc12 | inactive: 73% |

| SMILES | survival |
| --- | --- |
| Cc1ccc(NC(=O)N2CCc3c(sc4c3CCCC4)C2c2ccccc2)cc1F (centres undefined) | inactive: 81% |
| CSc1ncc(C(=O)NCc2ccccc2Cl)c(C(F)(F)F)n1 | inactive: 70% |
| COc1ccc(CN2CCN(c3ncnc4sc5c(c34)CCCC5)CC2)cc1F | inactive: 39% |
| CCCN1CCN(CC2=C(C(=O)OCC)C(c3cccc(OC)c3OC)NC(=O)N2)CC1 (centres undefined) | inactive: 76% |
| CCCCc1nn2c(=O)cc(COC(=O)c3ccc(NC(=O)c4cccc(OC)c4)cc3)nc2s1 | inactive: 135% |
| CCCCN(C)C(=O)c1ccc2c(c1)N(Cc1cccc(Cl)c1)C(=O)c1ccccc1S2=O (centres undefined) | inactive: 124% |
| CCOC(=O)CSc1nc2cc3c(cc2c(=O)n1CCCCCC(=O)NCc1ccc2c(c1)OCO2)OCO3 | inactive: 81% |
| COc1cc(C2Nc3ccccc3-c3nnc(SCc4ccc(Cl)cc4)nc3O2)ccc1OCC(=O)O (centres undefined) | inactive: 68% |
| Cc1ccc2c(CC(=O)Nc3ccc(S(=O)(=O)Nc4nc(C)cc(C)n4)cc3)coc2c1 | inactive: 76% |
| Cc1cc(C)cc(NC(=O)N2CCN(C)c3ncccc32)c1 | inactive: 75% |
| Cn1c(=O)cc(OCC(=O)N2CCN(c3ccccc3F)CC2)c2ccccc21 | inactive: 82% |
| CCOc1ccc(CNC(=O)CN2C(=O)CSc3ccc(S(=O)(=O)N4CCOCC4)cc32)cc1OC | inactive: 69% |
| COc1ccc(-c2noc(-c3cc(C(C)C)[nH]n3)n2)cc1 | inactive: 65% |
| CCN1CCc2c(sc(NC(=O)CSc3ccccc3)c2-c2nc3ccccc3s2)C1 | active: -6% |
| Cc1cc2oc(C(=O)N(Cc3ccc(N(C)C)cc3)CC3CCCO3)c(C)c2cc1C (centres undefined) | inactive: 77% |
| O=C(CCCCn1c(=O)c2ccccc2n(Cc2ccccc2F)c1=O)NCc1ccc2c(c1)OCO2 | inactive: 137% |
| O=C(NCc1ccc(Cl)cc1)C1(c2cccs2)CCOCC1 | inactive: 71% |
| O=C(Nc1ccc(NC(=O)c2cccs2)cc1)c1ccc(Cl)cc1 | inactive: 81% |
| COC(=O)c1ccccc1NC(=O)Cn1ncc2c(C)n(Cc3ccc(F)cc3)c(C)c2c1=O | inactive: 67% |
| CC(=O)c1cccc(Nc2cc(C)nc3nc(-c4ccccc4C)nn23)c1 | inactive: 102% |
| Cc1ccc(CNC(=O)C2CCCN(c3nc4c(C)cc(C)cc4s3)C2)cc1 (centres undefined) | inactive: 76% |
| Cc1ccc(OCCSc2nc3ccccc3n2CC(=O)N2CCCCC2)cc1C | inactive: 72% |
| COC(=O)c1ccccc1NC(=O)CCn1nc(C)c2c(C)n(-c3ccccc3)nc2c1=O | inactive: 59% |

| SMILES | survival |
| --- | --- |
| O=C(COc1ccccc1)NCCc1csc(-c2ccc(F)cc2)n1 | inactive: 71% |
| Clc1cc(Cl)c2nsnc2c1 | inactive: 108% |
| CN(C(=O)Cn1c(=O)n(Cc2ccc(C(=O)NCc3ccc4c(c3)OCO4)cc2)c(=O)c2ccccc21)c1ccccc1 | inactive: 96% |
| C=CCN1C(=O)C(C(=O)Nc2ccc(C)cc2)C2CC1(C)Oc1ccccc12 (centres undefined) | inactive: 116% |
| CCCCOc1ccc(Cn2c(=O)oc3ccccc32)cc1 | inactive: 113% |
| O=C(Cn1cc(S(=O)(=O)Cc2cccc(Cl)c2)c2ccccc21)Nc1ccc(F)c(Cl)c1 | inactive: 85% |
| COc1ccc(CNC(=O)CCc2nc3cccnc3n2Cc2ccc(OC)cc2)cc1 | inactive: 78% |
| Cc1cc(C(F)(F)F)c(C#N)c(SCC(=O)C(C)(C)C)n1 | inactive: 103% |
| Cc1ccccc1Cc1c(C)nc2c(-c3ccccc3)c(C)[nH]n2c1=O | active: -13% |
| CCC(C)c1ccc(NC(=O)CSc2nncn2N)cc1 (centres undefined) | inactive: 109% |
| Cc1ccc(NC(=O)Cn2c(=O)n(CCc3ccccc3)c(=O)c3sc4ccccc4c32)cc1C | inactive: 88% |
| COC(=O)c1ccc(NC(=O)c2nn(C)c3c2COc2ccccc2-3)cc1 | inactive: 96% |
| CCOc1ccc(OCC(=O)NCCS(=O)(=O)N2CCN(c3ccc(OC)cc3)CC2)cc1 | inactive: 70% |
| COc1ccccc1CNS(=O)(=O)c1cc(-c2cc(C)no2)ccc1C | inactive: 124% |
| O=C(NCc1cccc(Cl)c1)c1oc(=O)c2ccccc2c1-c1ccccc1 | inactive: 90% |
| Cc1nn(CCCC(=O)NCCc2ccc(Cl)cc2)c(=O)c2nn(-c3ccccc3)c(C)c12 | inactive: 77% |
| Cc1ccc(-c2cc(NC(=O)COc3c(C)cc(C)cc3C)on2)cc1 | inactive: 78% |
| O=C(NCc1ccccc1F)c1cccc(NC(=O)N2CCSc3ncccc32)c1 | inactive: 87% |
| CCn1c(=O)c(C(=O)Nc2cc(OC)c(OC)c(OC)c2)nc2ccccc21 | inactive: 76% |
| COc1ccc(C2CC(=O)c3cc(-c4nc(-c5cccc([N+](=O)[O-])c5)cs4)c(=O)n(-c4ccccc4C)c3C2)cc1 (centres undefined) | inactive: 134% |
